Assay results published in the supplement of paper PMC4604168 (melanoma cell lines).
The other results are listed elsewhere or left out. Repeats are few or missing, and single values can be far off.

The compounds below were run on A375 (assay: cell count relative to DMSO control; melanoma cells; higher = more viable cells). Conditions: library dose: standard library concentration; 72 h.
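Further: cells treated in 1,536-well plates, then fixed and DAPI-stained, with nuclei counted from automated high-throughput microscope images.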

Question: For Cc1ccc(NC(=O)c2cccc(N(C)C)c2)cc1NC(=O)c1ccc(O)cc1 + Cn1cncc1[C@@](N)(c1ccc(Cl)cc1)c1ccc2c(c1)c(-c1cccc(Cl)c1)cc(=O)n2C [tipifarnib] (first compound 10 µM, partner dose 0.05 µM), which cell count is on record?
Answer: Its cell count is 101%.

Question: NC(=O)c1ccc(N(C(N)=O)c2c(F)cccc2F)nc1-c1ccc(F)cc1F + COCC[n+]1c2c(n(Cc3cnccn3)c1C)C(=O)c1ccccc1C2=O [YM155] (first compound 2 µM, partner dose 0.002 µM) was tested. Which cell count did it give?
Answer: The cell count was 106%.

Question: How did the cell count turn out when CCCCCCCCc1ccc(CCC(N)(CO)CO)cc1 [fingolimod] + CNC(=O)c1cc(Oc2ccc(NC(=O)Nc3ccc(Cl)c(C(F)(F)F)c3)cc2)ccn1 [sorafenib] (first compound 10 µM, partner dose 2 µM) was run?
Answer: The cell count was 19.4%.

Question: Which cell count does the source give for CC(C)(C)c1cnc(CSc2cnc(NC(=O)C3CCNCC3)s2)o1 + OCCn1cc(-c2cnc3nnn(Cc4ccc5ncccc5c4)c3n2)cn1 [PF04217903] (first compound 0.05 µM, partner dose 5 µM) here?
Answer: Its cell count is 93.8%.

Question: Which cell count does the source give for NC(=O)c1ccc(N(C(N)=O)c2c(F)cccc2F)nc1-c1ccc(F)cc1F + NC1(c2ccc(-c3nc4ccn5c(=O)[nH]nc5c4cc3-c3ccccc3)cc2)CCC1 [MK2206] (first compound 2 µM, partner dose 2 µM) here?
Answer: The cell count was 98.4%.

Question: How did the cell count turn out when CCCCCCCCc1ccc(CCC(N)(CO)CO)cc1 [fingolimod] + COc1ccc(COc2ccc(Cc3cnc(N)nc3N)cc2OC)cc1 [GW2580] (first compound 10 µM, partner dose 5 µM) was run?
Answer: Its cell count is 60.6%.

Question: For NC(=O)c1ccc(N(C(N)=O)c2c(F)cccc2F)nc1-c1ccc(F)cc1F + Clc1ccc(Nc2nnc(Cc3ccncc3)c3ccccc23)cc1 [vatalanib] (first compound 2 µM, partner dose 10 µM), which cell count is on record?
Answer: Its cell count is 83.7%.

Question: Which cell count does the source give for NC(=O)c1ccc(N(C(N)=O)c2c(F)cccc2F)nc1-c1ccc(F)cc1F + CN1CCN(c2ccc3nc(-c4c(N)c5c(F)cccc5[nH]c4=O)[nH]c3c2)CC1 [Dovitinib] (first compound 2 µM, partner dose 0.5 µM) here?
Answer: Its cell count is 83.3%.

Question: With NC(=O)c1ccc(N(C(N)=O)c2c(F)cccc2F)nc1-c1ccc(F)cc1F + O=C(O)[C@@H]1[O][Sb](=[O])([O][Sb]2(=[O])[O][C@H]([C@H](O)CO)[C@H](O)[C@H](C(=O)O)[O]2)[O][C@H]([C@H](O)CO)[C@@H]1O [stibogluconate] (first compound 2 µM, partner dose 10 µM) as the compound, how does the cell count read?
Answer: The cell count was 147%.

Question: For CC(C)(C)c1cnc(CSc2cnc(NC(=O)C3CCNCC3)s2)o1 + O=S(=O)(c1ccccc1)N(CC(F)(F)F)c1ccc(C(O)(C(F)(F)F)C(F)(F)F)cc1 [T0901317] (first compound 0.05 µM, partner dose 7 µM), which cell count is on record?
Answer: Its cell count is 77.6%.

Question: For CCCCCCCCc1ccc(CCC(N)(CO)CO)cc1 [fingolimod] + CC(=O)O[C@@]12CO[C@@H]1C[C@H](O)[C@@]1(C)C(=O)[C@H](O)C3=C(C)[C@@H](OC(=O)[C@H](O)[C@@H](NC(=O)OC(C)(C)C)c4ccccc4)C[C@@](O)([C@@H](OC(=O)c4ccccc4)[C@H]21)C3(C)C [Docetaxel] (first compound 10 µM, partner dose 0.0005 µM), which cell count is on record?
Answer: The cell count was 68%.

Question: With CC(C)(C)c1cnc(CSc2cnc(NC(=O)C3CCNCC3)s2)o1 + C[C@@H]1CCN(C(=O)CC#N)C[C@@H]1N(C)c1ncnc2[nH]ccc12 [CP690550] (first compound 0.05 µM, partner dose 5 µM) as the compound, how does the cell count read?
Answer: Its cell count is 92.1%.

Question: With NC(=O)c1ccc(N(C(N)=O)c2c(F)cccc2F)nc1-c1ccc(F)cc1F + C#Cc1cccc(Nc2ncnc3cc(OCCOC)c(OCCOC)cc23)c1 [erlotinib] (first compound 2 µM, partner dose 4 µM) as the compound, how does the cell count read?
Answer: Its cell count is 116%.

Question: With NC(=O)c1ccc(N(C(N)=O)c2c(F)cccc2F)nc1-c1ccc(F)cc1F + Cc1ccc(NC(=O)c2cccc(N(C)C)c2)cc1NC(=O)c1ccc(O)cc1 [ZM336372] (first compound 2 µM, partner dose 10 µM) as the compound, how does the cell count read?
Answer: The cell count was 87.4%.

Question: How did the cell count turn out when CCCCCCCCc1ccc(CCC(N)(CO)CO)cc1 [fingolimod] + Nc1cccc2c1CN(C1CCC(=O)NC1=O)C2=O [lenalidomide] (first compound 10 µM, partner dose 5 µM) was run?
Answer: The cell count was 105%.

Question: With CCCCCCCCc1ccc(CCC(N)(CO)CO)cc1 [fingolimod] + O=C(O)c1ccc2c(c1)nc(Nc1cccc(Cl)c1)c1ccncc12 [CX4945] (first compound 10 µM, partner dose 2 µM) as the compound, how does the cell count read?
Answer: The cell count was 62.7%.

Question: CCCCCCCCc1ccc(CCC(N)(CO)CO)cc1 [fingolimod] + CS(=O)(=O)CCNCc1ccc(-c2ccc3ncnc(Nc4ccc(OCc5cccc(F)c5)c(Cl)c4)c3c2)o1 [lapatinib] (first compound 10 µM, partner dose 4 µM) was tested. Which cell count did it give?
Answer: Its cell count is 11.4%.

Question: For Cc1ccc(NC(=O)c2cccc(N(C)C)c2)cc1NC(=O)c1ccc(O)cc1 + O=C(Nc1cccc(Cl)c1)Nc1ncc(CCNc2ncnc3ccsc23)s1 [SNS314] (first compound 10 µM, partner dose 0.004 µM), which cell count is on record?
Answer: Its cell count is 104%.

Question: With Cc1ccc(NC(=O)c2cccc(N(C)C)c2)cc1NC(=O)c1ccc(O)cc1 + CC(C)(C)c1cnc(CSc2cnc(NC(=O)C3CCNCC3)s2)o1 [SNS-032] (first compound 10 µM, partner dose 0.05 µM) as the compound, how does the cell count read?
Answer: The cell count was 106%.

Question: CCCCCCCCc1ccc(CCC(N)(CO)CO)cc1 [fingolimod] + CC1(C)NC(=O)N(c2ccc([N+](=O)[O-])c(C(F)(F)F)c2)C1=O [nilutamide] (first compound 10 µM, partner dose 5 µM) was tested. Which cell count did it give?
Answer: Its cell count is 88.4%.

Question: How did the cell count turn out when NC(=O)c1ccc(N(C(N)=O)c2c(F)cccc2F)nc1-c1ccc(F)cc1F + NC(=O)Nc1cc(-c2cccc(F)c2)sc1C(=O)N[C@H]1CCCNC1 [AZD7762] (first compound 2 µM, partner dose 0.1 µM) was run?
Answer: Its cell count is 78.4%.

Question: How did the cell count turn out when NC(=O)c1ccc(N(C(N)=O)c2c(F)cccc2F)nc1-c1ccc(F)cc1F + CS(=O)(=O)CCNCc1ccc(-c2ccc3ncnc(Nc4ccc(OCc5cccc(F)c5)c(Cl)c4)c3c2)o1 [lapatinib] (first compound 2 µM, partner dose 4 µM) was run?
Answer: Its cell count is 108%.

Question: How did the cell count turn out when Cc1ccc(NC(=O)c2cccc(N(C)C)c2)cc1NC(=O)c1ccc(O)cc1 + Oc1nc(-c2ccc(C(F)(F)F)cc2)nc2c1CSCC2 [XAV939] (first compound 10 µM, partner dose 10 µM) was run?
Answer: Its cell count is 110%.

Question: With CCCCCCCCc1ccc(CCC(N)(CO)CO)cc1 [fingolimod] + Nc1ccn([C@@H]2O[C@H](CO)[C@@H](O)C2(F)F)c(=O)n1 [gemcitabine] (first compound 10 µM, partner dose 0.002 µM) as the compound, how does the cell count read?
Answer: The cell count was 75%.

Question: How did the cell count turn out when CCCCCCCCc1ccc(CCC(N)(CO)CO)cc1 [fingolimod] + Cc1nc(Nc2ncc(C(=O)Nc3c(C)cccc3Cl)s2)cc(N2CCN(CCO)CC2)n1 [dasatanib] (first compound 10 µM, partner dose 0.02 µM) was run?
Answer: The cell count was 96.2%.

Question: COc1cc2c(Oc3ccc4[nH]c(C)cc4c3F)ncnc2cc1OCCCN1CCCC1 [cediranib] + c1cc(-c2cnn3cc(-c4ccc(OCCN5CCCCC5)cc4)cnc23)ccn1 [Dorsomorphin] (first compound 2 µM, partner dose 2 µM) was tested. Which cell count did it give?
Answer: The cell count was 99.2%.

Question: With CCCCCCCCc1ccc(CCC(N)(CO)CO)cc1 [fingolimod] + O=c1cc(-c2cccc3c2Sc2ccccc2S3)oc(N2CCOCC2)c1 [KU55933] (first compound 10 µM, partner dose 5 µM) as the compound, how does the cell count read?
Answer: The cell count was 69.3%.

Question: With CCCCCCCCc1ccc(CCC(N)(CO)CO)cc1 [fingolimod] + C[C@@H](Oc1cc(-c2cnn(C3CCNCC3)c2)cnc1N)c1c(Cl)ccc(F)c1Cl [Crizotinib] (first compound 10 µM, partner dose 1 µM) as the compound, how does the cell count read?
Answer: Its cell count is 33.4%.

Question: With NC(=O)c1ccc(N(C(N)=O)c2c(F)cccc2F)nc1-c1ccc(F)cc1F + CN(NC(=O)CC(=O)NN(C)C(=S)c1ccccc1)C(=S)c1ccccc1 [STA4783] (first compound 2 µM, partner dose 0.03 µM) as the compound, how does the cell count read?
Answer: The cell count was 92.4%.

Question: With NC(=O)c1ccc(N(C(N)=O)c2c(F)cccc2F)nc1-c1ccc(F)cc1F + Cn1nnc2c(C(N)=O)ncn2c1=O [temozolomide] (first compound 2 µM, partner dose 10 µM) as the compound, how does the cell count read?
Answer: The cell count was 107%.

Question: For CCCCCCCCc1ccc(CCC(N)(CO)CO)cc1 [fingolimod] + COc1cc(Nc2ncc(F)c(Nc3ccc4c(n3)NC(=O)C(C)(C)O4)n2)cc(OC)c1OC [Tamatinib] (first compound 10 µM, partner dose 2 µM), which cell count is on record?
Answer: The cell count was 42.6%.

Question: CCCCCCCCc1ccc(CCC(N)(CO)CO)cc1 [fingolimod] + COc1cc2c(Oc3ccc4[nH]c(C)cc4c3F)ncnc2cc1OCCCN1CCCC1 [cediranib] (first compound 10 µM, partner dose 2 µM) was tested. Which cell count did it give?
Answer: Its cell count is 46%.

Question: NC(=O)c1ccc(N(C(N)=O)c2c(F)cccc2F)nc1-c1ccc(F)cc1F + O=C(Nc1cccc(Cl)c1)Nc1ncc(CCNc2ncnc3ccsc23)s1 [SNS314] (first compound 2 µM, partner dose 0.004 µM) was tested. Which cell count did it give?
Answer: Its cell count is 104%.

Question: With CCCCCCCCc1ccc(CCC(N)(CO)CO)cc1 [fingolimod] + O=C(CCCCCCC(=O)Nc1ccccc1)NO [vorinostat] (first compound 10 µM, partner dose 0.4 µM) as the compound, how does the cell count read?
Answer: Its cell count is 36.1%.
